Measured values: the supplement of paper PMC3334620
Over roughly 33,000 sequences, “E-score (-0.5 to 0.5)” has its median near -0.04; the highest 2% begin near 0.36. The list shows a part of the results.

biological target: T1, Hmlalpha2 (UniProt P0CY09); test: PBM E-score (8-mer binding enrichment) (E-score (-0.5 to 0.5)); higher = stronger / more preferred TF binding; most listed sequences are background and not binding sites; settings: protein concentration: 200 nM; construct: GST-full length
T1 sequence: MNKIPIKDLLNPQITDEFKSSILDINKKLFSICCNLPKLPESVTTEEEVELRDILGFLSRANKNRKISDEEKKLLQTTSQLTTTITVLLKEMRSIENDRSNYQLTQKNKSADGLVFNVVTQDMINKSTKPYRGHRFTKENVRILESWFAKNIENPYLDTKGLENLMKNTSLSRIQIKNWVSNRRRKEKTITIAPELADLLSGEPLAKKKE
Method in brief: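 Yeast transcription factors carrying a GST tag, as full-length proteins or DNA-binding domains, were produced by PURExpress in vitro transcription/translation. About 100-200 nM protein was applied to universal all-10-mer Agilent arrays, double-stranded by primer extension on fresh or once-stripped slides. Bound protein was detected with fluorescent anti-GST, and scans were normalised with masliner. The Universal PBM Analysis Suite gave each ungapped eight-base word, pooled with its reverse complement, an E-score, a modified Wilcoxon-Mann-Whitney statistic.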

Row | Sequence | PBM E-score
1 | TAGTGCAA | 0.122
2 | CTTGCGGA | -0.198
3 | ATGTGTGC | -0.0456
4 | CGCAATAA | 0.0535
5 | GTGGTAAC | 0.177
6 | AGCGCTTG | -0.156
7 | CGTCAAAA | 0.162
8 | ATATGGAA | -0.163
9 | CATAGTCG | 0.00552
10 | CTGGTAGC | -0.163
11 | ACCCTCCG | -0.249
12 | AAGAATGC | -0.0342
13 | CGTATTGA | 0.218
14 | ACCGGACG | 0.0425
15 | AATCGACG | 0.144
16 | ATATCTTG | 0.127
17 | GGGCACTA | -0.105
18 | ACTATAAA | 0.0609
19 | CAAGGACA | 0.0292
20 | AACAACAG | 0.108
21 | TAAAAATA | 0.301
22 | CCTCACAA | 0.0611
23 | AATCTCGT | 0.0984
24 | AGTTCAGC | -0.175
25 | ATGAAGTA | 0.029

Row | Sequence | PBM E-score
26 | GTCGTCAA | 0.043
27 | CGATTGGA | -0.236
28 | GAATATAC | 0.00757
29 | AGAGTGTC | 0.0584
30 | GTATAGTA | 0.0389
31 | AGCACATG | 0.27
32 | CAGGTCCC | -0.0871
33 | ATATGCAT | 0.0344
34 | CTCAAAGA | -0.00953
35 | ACAGAAAG | -0.025
36 | GAGACAAA | -0.215
37 | CTTAATAA | 0.0396
38 | AACAGTGC | -0.058
39 | GAAATAAC | 0.238
40 | CACGAGTG | 0.0663
41 | ACCTTTAC | 0.217
42 | GGCGGTGA | -0.163
43 | TATCAACA | 0.365
44 | TAACTTAA | 0.225
45 | CGCGCCCA | -0.105
46 | GCAGTCGA | -0.211
47 | ACGGCTAA | 0.00018
48 | ACGTGGCA | 0.0943
49 | ACCCACGG | -0.232
50 | AGGTTGTA | 0.298

Row | Sequence | PBM E-score
51 | CCGCCTCG | -0.0272
52 | ACAGGAAC | 0.171
53 | CGGGCTTC | -0.266
54 | GGCGACGA | -0.241
55 | TTCATAAA | -0.00038
56 | AAATGCGA | 0.129
57 | ATCTCGGA | -0.115
58 | GCATTGTA | 0.27
59 | GACTTATA | 0.0583
60 | AGTGTCGA | -0.0564
61 | CAATTGTC | -0.166
62 | ACACTACG | 0.16
63 | CGACGACA | -0.0291
64 | AGGAGTCA | -0.136
65 | ACCACGGC | -0.0977
66 | CGTTCGAG | 0.133
67 | GGAAGAAC | 0.138
68 | AATGTCGA | 0.199
69 | ACACCCCA | 0.0432
70 | CAACAGTG | -0.0459
71 | GAATTATA | 0.113
72 | ACTATGAG | -0.262
73 | CGATTGAG | -0.138
74 | CTACTACA | 0.304
75 | GCTGTGAC | -0.148

Row | Sequence | PBM E-score
76 | ACGACTAC | -0.0627
77 | CTATAGGA | -0.053
78 | TCTGTTCA | -0.00907
79 | ATCCTCCA | -0.166
80 | GGAAAGAC | -0.129
81 | AGTCCAAG | -0.0149
82 | TCTATTAA | 0.176
83 | ATAAAAGG | -0.104
84 | GAAATTTA | 0.251
85 | AGGACAAC | 0.148
86 | GCGACCTA | -0.165
87 | CCTAAGCG | -0.0694
88 | GCTGGTGA | 0.0149
89 | GCAATACC | 0.115
90 | CACGAAAC | 0.0891
91 | GGCAAAAC | -0.106
92 | CCGTGCCA | -0.343
93 | CCGACGCG | 0.0288
94 | TAGCAGCA | -0.0647
95 | ACATGCTC | 0.388
96 | ATATAAGC | -0.00391
97 | TAATGGGA | -0.0919
98 | CCTCCAAC | -0.0472
99 | CACAGAAG | -0.0803
100 | ACGATATA | 0.172

Row | Sequence | PBM E-score
101 | TCATCCGA | 0.0299
102 | AGTCTATG | -0.15
103 | CTGCGGTC | -0.306
104 | TATGACGA | -0.0622
105 | ATCAAGCA | -0.0276
106 | CCAGTATA | -0.194
107 | ATCCATAG | -0.262
108 | CCTTAAAA | 0.0328
109 | GCTCATAC | -0.111
110 | ATGAAGAA | 0.219
111 | GAAAGCCC | -0.225
112 | ATACTGGC | -0.149
113 | AGAGCCCA | -0.0942
114 | GAATTCTC | -0.0305
115 | AACGTGGT | 0.194
116 | GATCCACC | -0.201
117 | GGCTGGTA | -0.204
118 | AGTTGTGC | -0.0322
119 | AGGTGCAG | -0.173
120 | CCATCGGG | -0.186
121 | CCGATTCC | -0.241
122 | AGAGCCGG | -0.222
123 | CGGTTCGA | -0.0762
124 | TAAGGAAA | -0.00733
125 | ATTGTTAC | 0.329

Row | Sequence | PBM E-score
126 | AGCTTATG | 0.0824
127 | CTGGCAAG | 0.00339
128 | CAGTAGAG | -0.246
129 | ATTATCTC | -0.0567
130 | AAAAGACG | 0.0426
131 | ACAAGTTA | 0.204
132 | ACGTCTGC | -0.182
133 | GGTGCAAC | -0.234
134 | GAGTCGGA | -0.27
135 | CACGACCG | 0.0621
136 | AGGACGCG | -0.102
137 | ACGCCGAG | -0.0454
138 | AGCTCGCG | -0.0274
139 | ACAGCAGT | -0.0376
140 | ATGTTTCC | 0.0968
141 | AAACTCAA | 0.18
142 | CGAAGCGA | -0.131
143 | AGAGGGAC | -0.284
144 | CGTGGGTC | -0.127
145 | GCCAGAGC | -0.328
146 | CCCGCCAA | -0.222
147 | GGCGCAAA | -0.11
148 | AGCCCAAA | 0.104
149 | CGGGCGGC | -0.304
150 | CAATCTCC | -0.222

Row | Sequence | PBM E-score
151 | AACCCGAC | 0.109
152 | AAGTGACT | -0.18
153 | CCTGGTGA | -0.269
154 | ACGAATTA | 0.099
155 | AGACGGAA | -0.215
156 | GAGTATAA | 0.169
157 | TCCCTAAA | -0.0419
158 | AAAGTGAA | -0.00254
159 | CTACTCAC | 0.0417
160 | ATTCGGGC | -0.0522
161 | ACTCCACA | 0.0494
162 | AACGGTTG | 0.153
163 | CTAGATTC | -0.183
164 | ATCGAACA | 0.0534
165 | CTAACTCA | -0.0262
166 | GCGTTCGA | 0.159
167 | ACATTTTA | 0.291
168 | CGGATGGC | -0.103
169 | GTAATTTA | 0.346
170 | GCGCGGAC | 0.0699
171 | ACCTGAAT | 0.143
172 | CCCAATGC | -0.198
